# According to the supplement of paper PMC11417369:
# This is one part of the list.
# Tested on: PfHDP1 homeodomain (GST-tagged)
# Test: gcPBM binding intensity (ln(normalized median fluorescence intensity)); higher = stronger DNA binding
# Summary of the method: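 GST-tagged P. falciparum DNA-binding domains produced in E. coli were incubated for 1 h on an Agilent 4 × 180k array of primer-extended double-stranded 36-bp intergenic genomic probes with negative controls. Binding intensity is the highest Masliner-normalised natural-log median intensity across replicate spots of either probe orientation, with bound protein detected by Alexa488 anti-GST antibody at 488 nm.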
row,Sequence,gcPBM binding intensity (ln)
1,AACAGGTCATAATTTACACACTATATATTTTATTAT [CACACA_site670],7.03
2,TATAAAATTTTTAAAAGTACATATTTTACATAATAC [XGTACX_site2193],6.11
3,TTTTTATCAACAAATAATACCATAACTCATATTTAT [CACACA_negctrl_site740],6.29
4,ATTATTCCATATTATTGTACTTTAATTTTTTAAACC [XGTACX_site2960],6.67
5,ATATATAATATATATTGTACAGGTATGTCTATAAAT [XGTACX_site2243],6.62
6,GAGAGGTATCAAAAATGTACACATATATATATGTAT [XGTACX_site5611],6.35
7,TTTTTTCTTTATTATGGTACGTATAAAAAAATTATA [XGTACX_site3433],6.35
8,AAAAAAAAAACACGCGCACACACACCCACCCACCCA [CACACA_site8689],6.97
9,ACTAATAAAGGTGTAATACACACTATAAAAAGGAAT [CACACA_site1124],7.21
10,TGTTGATTTATCCTGTGTACGGATATATATCTTTCA [XGTACX_site7826],6.23
11,TAAAGAATATTATAAACACACACTTTATAAAGAATT [CACACA_site114],6.46
12,GTAATTATACATATTACACACTCTCTTGATCTTTTT [CACACA_site7756],6.41
13,TATATAAAGAAACACACACACACCTTATAATTATTA [CACACA_site4062],6.9
14,TTTATCTAAATATGTGTGCACTCGTTAATTTTTTTT,10.8
15,TATATAAACCCACCTACACACACAACGTAAATGCAT [CACACA_site8702],7.06
16,ATTATTATATTCAAATGTACTTAATAAACATTTTAA [XGTACX_site3023],6.39
17,TAATAATATATAAAAAGTACATAACAAGATATGAAA [XGTACX_site4921],6.39
18,ATATATTTTTTTTTTTCACACATTAGGATTCATATA [CACACA_site5758],6.59
19,GAAAATAACTAAAATTGTACAAAGAAACATATATTT [XGTACX_site6484],6.75
20,AGAAAAAAATAATCATCACACACGGAGAATGTCCAA [CACACA_site2314],6.28
21,TATTAAAGCACCCATGCACACACACTAAGGAAAAGA [CACACA_site7961],8.48
22,TATATATATCTGTATACACACATACAAATATGTAAA [CACACA_site5950],6.71
23,GATATTCATTATATATGTACATATATGTAATATATA [XGTACX_site2210],6.57

row,Sequence,gcPBM binding intensity (ln)
1,TTTTGTTAAAAAGATGTATATTTTATAAATATTTAT [CACACA_negctrl_site101],5.95
2,AAATAAAATAAATAATATAAAATAATATATAAAAAA [CACACA_negctrl_site1777],6.15
3,CACAAACAAAAACACACACACACACCGACAAAAATG [CACACA_site5362],6.79
4,TTCTTTCTAGAATATTGTACATATATTGTTATTATA [XGTACX_site8425],6.61
5,AGAAAGAAGATATATACACACAAAAAAAGATATATA [CACACA_site6779],6.75
6,TATAAATATTTATACACACACACATTAATACCTATA [CACACA_site7604],7.07
7,AAAAGAAGATAATACAGTACAGAATAATATAAAATA [XGTACX_site5962],6.51
8,ATAAGAATCATATTTAAACACACATACATATATATA [CACACA_site9106],6.92
9,AAAAAAAAAAAATACACACACATAAAAAAAAAAATA [CACACA_site1858],6.54
10,ATTATATTAACAATGACATGCAATTCTTAATCCTTA [TGCATGCA_site648],6.58
11,ATTAAATAAACCATTACACACTTTTATGTTTTGAAA [CACACA_site1143],6.56
12,TTTTTATTGGTGAATACACACGTATATATATATTAT [CACACA_site8756],7.12
13,AAAAAAAAATTGTGTACACATAATTATATCATATGT [CACACA_site4500],6.76
14,ATGGATAATAAGTTTACACACAAAAAAAAAGAAAAA [CACACA_site861],6.42
15,ATTTAAAAAATATATTGTACATATTTTATTATGTTT [XGTACX_site2984],6.4
16,TACAGTTTTTCTTTGAATTTATCAAGTTTTTTTCCC [XGTACX_negctrl_site60],6.59
17,TAGTTACCTTAATATTGTACTTTTCTTTCATATATG [XGTACX_site1309],6.47
18,CACTAAATAAGGAAAGTGCATAAAATAAAGGTTATA [GTGCAC_site9793],7.99
19,GTGTCAAATTTTATAACACACAAAAGGTTATATAAG [CACACA_site7839],6.3
20,ATAGTTTCTGGTAGCTGTACGAGTCGTAGAGTGCAG [XGTACX_site2022],6.83
21,GTCGAGGATATATAAAGTACATATATATATATGATA [XGTACX_site1128],6.41
22,TAATGTATCTAAAATTGTACAAATATAAATATAAAT [XGTACX_site2764],6.54
